# The inconclusive results got no clear call from the source; some entries with a clear call stand among them for comparison. Where the call is inconclusive, the potency comes from a doubtful curve fit. The source made the active and inactive calls. Calls follow the shape of the dose curve; as a rule, active = well fitted curve in the direction sought with a large enough effect; inconclusive = small, poorly fitted or top-dose-only effect, or another doubt; inactive = no such curve, though single readings can be large; an effect the other way counts as inactive or inconclusive.
# Tested on: not listed separately
# Experiment: qHTS to identify inhibitors of the type 1 interferon - major histocompatibility complex class I in skeletal muscle: primary screen against the NCATS Mechanism Interrogation Plate v5.0 (MIPE) Libary (AID 1347411); also: nearly all actives have a fitted effect of over 65% in size;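 as to activity change, negative = inhibition: plate controls were vehicle for no effect and reference inhibitor for full effect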
# Conditions: iHSKM cells + IFN-b, HiBiT-tagged MHC-I luminescence, 24 h; activity change, negative = inhibition: at 45.8 µM (top of the series)
# Summary of the method: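 HLA-B HiBit myoblasts, dexamethasone-free medium + 4 ng/ml IFN-b, 24 h compound, 11-pt 1:3 from 46 uM final. Readout: Nano-Glo HiBiT lytic luminescence after 10 min lysis, RT.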
# Potency is read from the fitted curve at half-maximal effect; tags tell the direction and shape of the fitted curve.
Compound,Potency,"activity change, negative = inhibition"
Oc1c(Cl)cc(Cl)c2cccnc12,active: 23.4 µM,–
CCCCC(=O)OCC(=O)[C@]1(O)Cc2c(O)c3c(c(O)c2[C@@H](O[C@H]2C[C@H](NC(=O)C(F)(F)F)[C@H](O)[C@H](C)O2)C1)C(=O)c1c(OC)cccc1C3=O,active: 10.4 µM,–
C/C=C(/C(=C/C)c1ccc(O)cc1)c1ccc(O)cc1,–,inconclusive: -48.9% [inhibitor]
O=[N+]([O-])c1ccc(O)c2ncccc12,"inconclusive: 29.4 µM [inhibitor, single point]",–

# Target: Protein phosphatase 1D (Homo sapiens) (UniProt O15297)
# UniProt O15297, sequence (O15297 whole entry, looked up): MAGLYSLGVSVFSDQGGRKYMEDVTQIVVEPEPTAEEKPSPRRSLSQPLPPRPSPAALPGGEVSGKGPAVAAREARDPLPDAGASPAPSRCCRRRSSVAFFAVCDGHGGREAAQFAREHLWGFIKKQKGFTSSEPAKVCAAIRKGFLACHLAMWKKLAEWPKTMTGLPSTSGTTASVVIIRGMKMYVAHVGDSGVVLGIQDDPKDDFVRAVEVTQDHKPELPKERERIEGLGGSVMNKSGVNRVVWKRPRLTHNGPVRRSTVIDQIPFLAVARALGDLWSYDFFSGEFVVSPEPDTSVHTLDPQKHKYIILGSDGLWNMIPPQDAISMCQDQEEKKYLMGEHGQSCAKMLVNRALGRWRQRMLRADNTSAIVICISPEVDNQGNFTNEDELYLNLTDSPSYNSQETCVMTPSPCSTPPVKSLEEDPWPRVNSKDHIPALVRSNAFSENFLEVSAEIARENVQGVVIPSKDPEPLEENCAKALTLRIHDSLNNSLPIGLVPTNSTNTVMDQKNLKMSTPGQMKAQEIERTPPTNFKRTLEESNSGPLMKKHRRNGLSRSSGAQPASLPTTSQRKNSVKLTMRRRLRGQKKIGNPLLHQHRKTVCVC
# Experiment: RapidFire Mass Spectrometry qHTS Assay for Modulators of WT P53-Induced Phosphatase 1 (WIP1) (AID 1347424);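 also: amount of dephosphorylated VEPPL-S-QETFS peptide product formed by WIP1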;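 as to activity change, negative = inhibition: plate controls were DMSO wells for no effect and GSK830371 inhibitor control at 10 µM for full effect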
# Conditions: WIP1 dephosphorylation of phosphopeptide, RapidFire MS; series mostly up to 63 µM
# Summary of the method: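 Mass-spectrometric measurement of dephosphorylated peptide after a 5 min room-temperature reaction of 10 nM WIP1 with 2 uM phosphopeptide, following 1 h compound preincubation in 30 mM MgCl2 buffer.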
row,Compound,Potency
1,CN(C)/N=N/c1nc[nH]c1C(N)=O,"inconclusive: 0.282 µM [inhibitor, full curve]"
2,CC/C(=C(/CC)c1ccc(O)cc1)c1ccc(O)cc1,active: 15.8 µM
3,CCCc1ncc(C[n+]2ccccc2C)c(N)n1,inactive
4,Cc1c(C)c2c(c(C)c1O)CCC(C)(COc1ccc(CC3SC(=O)NC3=O)cc1)O2 (configuration not stated),"inconclusive: 39.8 µM [inhibitor, single point]"
5,COc1c2occc2c(OC)c2c(=O)cc(C)oc12,inactive
6,CCCCOc1cc(C(=O)NCCN(CC)CC)c2ccccc2n1,inactive
7,C/C=C(/C(=C/C)c1ccc(O)cc1)c1ccc(O)cc1,"inconclusive: 25.1 µM [inhibitor, partial curve]"
8,O=C1OC2(c3ccccc31)c1cc(Br)c(O)c(Br)c1Oc1c2cc(Br)c(O)c1Br,"inconclusive: 17.8 µM [inhibitor, partial curve, poor fit]"
9,CCC(=O)c1c(O)cc(O)cc1O,"inconclusive: 44.7 µM [inhibitor, single point]"
10,CN1[C@@H]2CC(OC(=O)[C@H](CO)c3ccccc3)C[C@H]1[C@@H]1O[C@@H]12 (some centres not stated),inactive

# Target: Protein phosphatase 1D (Homo sapiens) (UniProt O15297)
# Experiment: Rhodamine-PBP qHTS Assay for Modulators of WT P53-Induced Phosphatase 1 (WIP1) (AID 1347425); as to activity change, negative = inhibition: % of control where 0% means no effect
# Conditions: recombinant WIP1, Rhodamine-PBP phosphate fluorescence, real-time; series mostly up to 57.5 µM
# Summary of the method: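 WIP1 (5 nM final) was preincubated with compound for 1 hour at room temperature. It then dephosphorylated 10 uM VEPPL-pS-QETFS peptide in Tris-HCl pH 7.5 with 30 mM MgCl2. Released Pi was detected by 10 uM Rh-PBP fluorescence (ex 525/em 598 nm) read at 1-min intervals for 11 min, as delta f1 - f0.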
row,Compound,Potency
1,CCOc1ccc(NC(C)=O)cc1,inactive
2,CC1(C)O[C@@H]2[C@@H](CO[C@@]3(COS(N)(=O)=O)OC(C)(C)O[C@@H]23)O1,inactive
3,CC(C)(C)CC(C)(C)c1ccc(O)c(Cc2ccc(Cl)cc2Cl)c1,"inconclusive: 14.1 µM [inhibitor, partial curve, poor fit]"
4,CC/C(=C(/CC)c1ccc(O)cc1)c1ccc(O)cc1,"inconclusive: 11.2 µM [inhibitor, partial curve, poor fit]"
5,NC(=O)n1c(O)c(C(=O)c2cccs2)c2cc(Cl)ccc21,"inconclusive: 25.1 µM [inhibitor, partial curve, poor fit]"
6,Cc1c(C)c2c(c(C)c1O)CCC(C)(COc1ccc(CC3SC(=O)NC3=O)cc1)O2 (configuration not stated),"inconclusive: 12.6 µM [inhibitor, partial curve, poor fit]"
7,CCOc1ccc(NC(=O)CC(C)O)cc1 (configuration not stated),inactive
8,C/C=C(/C(=C/C)c1ccc(O)cc1)c1ccc(O)cc1,"inconclusive: 20 µM [inhibitor, partial curve, poor fit]"
9,O=C1OC2(c3ccccc31)c1cc(Br)c(O)c(Br)c1Oc1c2cc(Br)c(O)c1Br,"inconclusive: 17.8 µM [inhibitor, partial curve, poor fit]"

# Tested on: not listed separately
# Experiment: Primary qHTS for inhibitors of La Crosse Virus (LACV) - induced cell death in SH-SY5Y cells (AID 1508616);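 as to activity change: top concentration of the series differs between compounds; 0% = infected DMSO wells and 100% = uninfected DMSO wells; higher means more rescue of cells from virus-induced death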
# Conditions: SH-SY5Y LACV cytopathicity rescue, ATP luminescence, 6 d; series mostly up to 4.29 µM
# Summary of the method: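 Cytopathicity rescue screen: compounds pinned onto SH-SY5Y cells, which are then infected with LACV (MOI 0.01) and held 6 days at 37C. Percent activity is scaled between infected DMSO control and uninfected DMSO control.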
row,Compound,Potency
1,O=c1c(-c2ccccc2)c1-c1ccccc1,"inconclusive: 1.12 µM [inhibitor, single point]"
2,CCC(C)(C)C(=O)O[C@H]1C[C@@H](C)C=C2C=C[C@H](C)[C@H](CC[C@@H]3C[C@@H](O)CC(=O)O3)[C@H]21,"inconclusive: 3.16 µM [inhibitor, single point]"
3,O=C(CCCN1CCC(O)(c2cccc(C(F)(F)F)c2)CC1)c1ccc(F)cc1,inactive
4,Oc1c(Cl)cc(Cl)c2cccnc12,"inconclusive: 2.24 µM [inhibitor, single point]"
5,CCN1CCCC1=O,"inconclusive: 2.24 µM [inhibitor, single point]"
6,Cc1cc(N)c2cc(NC(=O)Nc3ccc4nc(C)cc(N)c4c3)ccc2n1,"inconclusive: 0.251 µM [inhibitor, full curve]"
7,CN1CCCN(C(c2ccccc2)c2ccc(Cl)cc2)CC1 (configuration not stated),"inconclusive: 1 µM [inhibitor, partial curve, poor fit]"
8,CCN(CCCCOC(=O)c1ccc(OC)c(OC)c1)C(C)Cc1ccc(OC)cc1 (configuration not stated),"inconclusive: 0.631 µM [inhibitor, full curve, poor fit]"
9,CCC(=O)c1ccc2c(c1)N(CCCN(C)C)c1ccccc1S2,"inconclusive: 6.31 µM [inhibitor, single point]"
10,CC(=O)N(O)CCCCCNC(=O)CCC(=O)N(O)CCCCCNC(=O)CCC(=O)N(O)CCCCCN,"inconclusive: 1.41 µM [inhibitor, partial curve, poor fit]"
11,COc1cc2c(Nc3ccc(Br)cc3F)ncnc2cc1OCC1CCN(C)CC1,"inconclusive: 0.891 µM [inhibitor, single point]"
12,CCN(CC)CCNC(=O)c1ccc(N)cc1,inactive
13,Oc1c(I)cc(I)c2cccnc12,"inconclusive: 1.26 µM [inhibitor, partial curve, poor fit]"
14,Nc1c2ccccc2nc2ccccc12,"inconclusive: 1 µM [inhibitor, single point]"
15,N=C(N)c1ccc(OCCCCCOc2ccc(C(=N)N)cc2)cc1,"inconclusive: 0.631 µM [inhibitor, partial curve, poor fit]"
16,CCCCCCNC(=O)n1cc(F)c(=O)[nH]c1=O,inactive
17,C=C(CC)C(=O)c1ccc(OCC(=O)O)c(Cl)c1Cl,"inconclusive: 3.16 µM [inhibitor, single point]"
18,O=[N+]([O-])c1ccc(O)c2ncccc12,"inconclusive: 1 µM [inhibitor, partial curve, poor fit]"
19,COCc1c(C(C)C)nc(C(C)C)c(/C=C/[C@@H](O)C[C@@H](O)CC(=O)O)c1-c1ccc(F)cc1,"inconclusive: 0.631 µM [inhibitor, partial curve, poor fit]"

# Source: PubChem BioAssay (NCATS)
